± gives the standard deviation of the averaged measurements. Restriction of a single-cycle SIVsab GFP reporter by TRIM5α v1-loop variants in CRFK cells. Human variants: read share among cells still uninfected after two challenges over input, higher = gained restriction. Rhesus variants: share among infected cells over input, higher = lost restriction. Reporter dose not given per row. No active / inactive call per row; the paper calls a change when both replicates lie above its controls (mean + 2 SD of stop or wild-type variants, or the top frameshift score). Residues outside the varied loop are taken from Swiss-Prot. The paper reads the human single-substitution scores as noise; they and the rhesus combinations repeat poorly (rank correlation 0.3 to 0.4), indel scores repeat only for the top variants, rhesus substitutions well (0.9).

For this data set, the system named is SIVsab (simian immunodeficiency virus of sabaeus monkeys), single-cycle GFP reporter, in CRFK cells. Put plainly: enrichment among uninfected cells over input (fold); higher = stronger restriction. Conditions: library: human / rhesus combinations. As for the experimental part:
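Pools of CRFK cells expressing variants of the TRIM5α v1 loop were challenged with the single-cycle reporter, sorted by GFP and sequenced; mean of two replicates.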
In the case of “MASGILVNVKEEVTCPICLELLTQPLSLDCGHSFCQACLTANHKKSMLDKGESSCPVCRISYQPENIRPNRHVANIVEKLREVKLSPEGQKVDHCARHGEKLLLFCQEDGKVICWLCERSQEHRGHHTFLTEEVAREYQVKLQAALEMLRQKQQEAEELEADIREEKASWKTQIQYDKTNVLADFEQLRDILDWEESNELQNLEKEEEDILKSLTNSETEMVQQTQSLRELISDLEHRLQGSVMELLQGVDGVIKRTENVTLKKPETFPKNQRRVFRAPDLKGMLEVFRELTDVRRYWVDVTVAPNNISCAVISEDKRQVSSPKPQIIYGARGTRFPSLVNFNYCTGILGSQSITSGKHYWEVDVSKKTAWILGVCAGFQPDAMCNIEKNENYQPKYGYWVIGLEEGVKCSAFQDSSFHTPSVPFIVPLSVIICPDRVGVFLDYEACTVSFFNITNHGFLIYKFSHCSFSQPVFPYLNPRKCGVPMTLCSPSS [human TRIM5α, 330-340 = GARGTRFPSLV]”, the enrichment was 0.304 ± 0.43.
Turning to “MASGILVNVKEEVTCPICLELLTQPLSLDCGHSFCQACLTANHKKSMLDKGESSCPVCRISYQPENIRPNRHVANIVEKLREVKLSPEGQKVDHCARHGEKLLLFCQEDGKVICWLCERSQEHRGHHTFLTEEVAREYQVKLQAALEMLRQKQQEAEELEADIREEKASWKTQIQYDKTNVLADFEQLRDILDWEESNELQNLEKEEEDILKSLTNSETEMVQQTQSLRELISDLEHRLQGSVMELLQGVDGVIKRTENVTLKKPETFPKNQRRVFRAPDLKGMLEVFRELTDVRRYWVDVTVAPNNISCAVISEDKRQVSSPKPQIIYGARGTRFQSFTNFNYCTGILGSQSITSGKHYWEVDVSKKTAWILGVCAGFQPDAMCNIEKNENYQPKYGYWVIGLEEGVKCSAFQDSSFHTPSVPFIVPLSVIICPDRVGVFLDYEACTVSFFNITNHGFLIYKFSHCSFSQPVFPYLNPRKCGVPMTLCSPSS [human TRIM5α, 330-340 = GARGTRFQSFT]”, the enrichment stood at 0.0125 ± 0.014.
For the sequence “MASGILVNVKEEVTCPICLELLTQPLSLDCGHSFCQACLTANHKKSMLDKGESSCPVCRISYQPENIRPNRHVANIVEKLREVKLSPEGQKVDHCARHGEKLLLFCQEDGKVICWLCERSQEHRGHHTFLTEEVAREYQVKLQAALEMLRQKQQEAEELEADIREEKASWKTQIQYDKTNVLADFEQLRDILDWEESNELQNLEKEEEDILKSLTNSETEMVQQTQSLRELISDLEHRLQGSVMELLQGVDGVIKRTENVTLKKPETFPKNQRRVFRAPDLKGMLEVFRELTDVRRYWVDVTVAPNNISCAVISEDKRQVSSPKPQIIYGARGTRFQSLTNFNYCTGILGSQSITSGKHYWEVDVSKKTAWILGVCAGFQPDAMCNIEKNENYQPKYGYWVIGLEEGVKCSAFQDSSFHTPSVPFIVPLSVIICPDRVGVFLDYEACTVSFFNITNHGFLIYKFSHCSFSQPVFPYLNPRKCGVPMTLCSPSS [human TRIM5α, 330-340 = GARGTRFQSLT]”, the enrichment came to 0.0031 ± 0.0001.
On to “MASGILVNVKEEVTCPICLELLTQPLSLDCGHSFCQACLTANHKKSMLDKGESSCPVCRISYQPENIRPNRHVANIVEKLREVKLSPEGQKVDHCARHGEKLLLFCQEDGKVICWLCERSQEHRGHHTFLTEEVAREYQVKLQAALEMLRQKQQEAEELEADIREEKASWKTQIQYDKTNVLADFEQLRDILDWEESNELQNLEKEEEDILKSLTNSETEMVQQTQSLRELISDLEHRLQGSVMELLQGVDGVIKRTENVTLKKPETFPKNQRRVFRAPDLKGMLEVFRELTDVRRYWVDVTVAPNNISCAVISEDKRQVSSPKPQIIYGARGTRFQSLVNFNYCTGILGSQSITSGKHYWEVDVSKKTAWILGVCAGFQPDAMCNIEKNENYQPKYGYWVIGLEEGVKCSAFQDSSFHTPSVPFIVPLSVIICPDRVGVFLDYEACTVSFFNITNHGFLIYKFSHCSFSQPVFPYLNPRKCGVPMTLCSPSS [human TRIM5α, 330-340 = GARGTRFQSLV]”, for which the enrichment worked out at 0.00124 ± 0.00028.
On to “MASGILVNVKEEVTCPICLELLTQPLSLDCGHSFCQACLTANHKKSMLDKGESSCPVCRISYQPENIRPNRHVANIVEKLREVKLSPEGQKVDHCARHGEKLLLFCQEDGKVICWLCERSQEHRGHHTFLTEEVAREYQVKLQAALEMLRQKQQEAEELEADIREEKASWKTQIQYDKTNVLADFEQLRDILDWEESNELQNLEKEEEDILKSLTNSETEMVQQTQSLRELISDLEHRLQGSVMELLQGVDGVIKRTENVTLKKPETFPKNQRRVFRAPDLKGMLEVFRELTDVRRYWVDVTVAPNNISCAVISEDKRQVSSPKPQIIYGARGTRFQTLTNFNYCTGILGSQSITSGKHYWEVDVSKKTAWILGVCAGFQPDAMCNIEKNENYQPKYGYWVIGLEEGVKCSAFQDSSFHTPSVPFIVPLSVIICPDRVGVFLDYEACTVSFFNITNHGFLIYKFSHCSFSQPVFPYLNPRKCGVPMTLCSPSS [human TRIM5α, 330-340 = GARGTRFQTLT]”, for which the enrichment came out at 0.00922 ± 0.0089.
The value for “MASGILVNVKEEVTCPICLELLTQPLSLDCGHSFCQACLTANHKKSMLDKGESSCPVCRISYQPENIRPNRHVANIVEKLREVKLSPEGQKVDHCARHGEKLLLFCQEDGKVICWLCERSQEHRGHHTFLTEEVAREYQVKLQAALEMLRQKQQEAEELEADIREEKASWKTQIQYDKTNVLADFEQLRDILDWEESNELQNLEKEEEDILKSLTNSETEMVQQTQSLRELISDLEHRLQGSVMELLQGVDGVIKRTENVTLKKPETFPKNQRRVFRAPDLKGMLEVFRELTDVRRYWVDVTVAPNNISCAVISEDKRQVSSPKPQIIYGARGTRFTFPSFTNFNYCTGILGSQSITSGKHYWEVDVSKKTAWILGVCAGFQPDAMCNIEKNENYQPKYGYWVIGLEEGVKCSAFQDSSFHTPSVPFIVPLSVIICPDRVGVFLDYEACTVSFFNITNHGFLIYKFSHCSFSQPVFPYLNPRKCGVPMTLCSPSS [human TRIM5α, 330-340 = GARGTRFTFPSFT]” was 0.227 ± 0.013.
As for “MASGILVNVKEEVTCPICLELLTQPLSLDCGHSFCQACLTANHKKSMLDKGESSCPVCRISYQPENIRPNRHVANIVEKLREVKLSPEGQKVDHCARHGEKLLLFCQEDGKVICWLCERSQEHRGHHTFLTEEVAREYQVKLQAALEMLRQKQQEAEELEADIREEKASWKTQIQYDKTNVLADFEQLRDILDWEESNELQNLEKEEEDILKSLTNSETEMVQQTQSLRELISDLEHRLQGSVMELLQGVDGVIKRTENVTLKKPETFPKNQRRVFRAPDLKGMLEVFRELTDVRRYWVDVTVAPNNISCAVISEDKRQVSSPKPQIIYGARGTRFTFPSFVNFNYCTGILGSQSITSGKHYWEVDVSKKTAWILGVCAGFQPDAMCNIEKNENYQPKYGYWVIGLEEGVKCSAFQDSSFHTPSVPFIVPLSVIICPDRVGVFLDYEACTVSFFNITNHGFLIYKFSHCSFSQPVFPYLNPRKCGVPMTLCSPSS [human TRIM5α, 330-340 = GARGTRFTFPSFV]”, the enrichment came out at 0.221 ± 0.15.
For “MASGILVNVKEEVTCPICLELLTQPLSLDCGHSFCQACLTANHKKSMLDKGESSCPVCRISYQPENIRPNRHVANIVEKLREVKLSPEGQKVDHCARHGEKLLLFCQEDGKVICWLCERSQEHRGHHTFLTEEVAREYQVKLQAALEMLRQKQQEAEELEADIREEKASWKTQIQYDKTNVLADFEQLRDILDWEESNELQNLEKEEEDILKSLTNSETEMVQQTQSLRELISDLEHRLQGSVMELLQGVDGVIKRTENVTLKKPETFPKNQRRVFRAPDLKGMLEVFRELTDVRRYWVDVTVAPNNISCAVISEDKRQVSSPKPQIIYGARGTRFTFPSLTNFNYCTGILGSQSITSGKHYWEVDVSKKTAWILGVCAGFQPDAMCNIEKNENYQPKYGYWVIGLEEGVKCSAFQDSSFHTPSVPFIVPLSVIICPDRVGVFLDYEACTVSFFNITNHGFLIYKFSHCSFSQPVFPYLNPRKCGVPMTLCSPSS [human TRIM5α, 330-340 = GARGTRFTFPSLT]”, the enrichment is 0.0704 ± 0.012.
The value for “MASGILVNVKEEVTCPICLELLTQPLSLDCGHSFCQACLTANHKKSMLDKGESSCPVCRISYQPENIRPNRHVANIVEKLREVKLSPEGQKVDHCARHGEKLLLFCQEDGKVICWLCERSQEHRGHHTFLTEEVAREYQVKLQAALEMLRQKQQEAEELEADIREEKASWKTQIQYDKTNVLADFEQLRDILDWEESNELQNLEKEEEDILKSLTNSETEMVQQTQSLRELISDLEHRLQGSVMELLQGVDGVIKRTENVTLKKPETFPKNQRRVFRAPDLKGMLEVFRELTDVRRYWVDVTVAPNNISCAVISEDKRQVSSPKPQIIYGARGTRFTFPSLVNFNYCTGILGSQSITSGKHYWEVDVSKKTAWILGVCAGFQPDAMCNIEKNENYQPKYGYWVIGLEEGVKCSAFQDSSFHTPSVPFIVPLSVIICPDRVGVFLDYEACTVSFFNITNHGFLIYKFSHCSFSQPVFPYLNPRKCGVPMTLCSPSS [human TRIM5α, 330-340 = GARGTRFTFPSLV]” was 0.35 ± 0.14; that for “MASGILVNVKEEVTCPICLELLTQPLSLDCGHSFCQACLTANHKKSMLDKGESSCPVCRISYQPENIRPNRHVANIVEKLREVKLSPEGQKVDHCARHGEKLLLFCQEDGKVICWLCERSQEHRGHHTFLTEEVAREYQVKLQAALEMLRQKQQEAEELEADIREEKASWKTQIQYDKTNVLADFEQLRDILDWEESNELQNLEKEEEDILKSLTNSETEMVQQTQSLRELISDLEHRLQGSVMELLQGVDGVIKRTENVTLKKPETFPKNQRRVFRAPDLKGMLEVFRELTDVRRYWVDVTVAPNNISCAVISEDKRQVSSPKPQIIYGARGTRFTFPTFTNFNYCTGILGSQSITSGKHYWEVDVSKKTAWILGVCAGFQPDAMCNIEKNENYQPKYGYWVIGLEEGVKCSAFQDSSFHTPSVPFIVPLSVIICPDRVGVFLDYEACTVSFFNITNHGFLIYKFSHCSFSQPVFPYLNPRKCGVPMTLCSPSS [human TRIM5α, 330-340 = GARGTRFTFPTFT]” was 0.0283 ± 0.04.
As for “MASGILVNVKEEVTCPICLELLTQPLSLDCGHSFCQACLTANHKKSMLDKGESSCPVCRISYQPENIRPNRHVANIVEKLREVKLSPEGQKVDHCARHGEKLLLFCQEDGKVICWLCERSQEHRGHHTFLTEEVAREYQVKLQAALEMLRQKQQEAEELEADIREEKASWKTQIQYDKTNVLADFEQLRDILDWEESNELQNLEKEEEDILKSLTNSETEMVQQTQSLRELISDLEHRLQGSVMELLQGVDGVIKRTENVTLKKPETFPKNQRRVFRAPDLKGMLEVFRELTDVRRYWVDVTVAPNNISCAVISEDKRQVSSPKPQIIYGARGTRFTFPTFVNFNYCTGILGSQSITSGKHYWEVDVSKKTAWILGVCAGFQPDAMCNIEKNENYQPKYGYWVIGLEEGVKCSAFQDSSFHTPSVPFIVPLSVIICPDRVGVFLDYEACTVSFFNITNHGFLIYKFSHCSFSQPVFPYLNPRKCGVPMTLCSPSS [human TRIM5α, 330-340 = GARGTRFTFPTFV]”, the figure is 0.15 ± 0.11.
As for “MASGILVNVKEEVTCPICLELLTQPLSLDCGHSFCQACLTANHKKSMLDKGESSCPVCRISYQPENIRPNRHVANIVEKLREVKLSPEGQKVDHCARHGEKLLLFCQEDGKVICWLCERSQEHRGHHTFLTEEVAREYQVKLQAALEMLRQKQQEAEELEADIREEKASWKTQIQYDKTNVLADFEQLRDILDWEESNELQNLEKEEEDILKSLTNSETEMVQQTQSLRELISDLEHRLQGSVMELLQGVDGVIKRTENVTLKKPETFPKNQRRVFRAPDLKGMLEVFRELTDVRRYWVDVTVAPNNISCAVISEDKRQVSSPKPQIIYGARGTRFTFPTLTNFNYCTGILGSQSITSGKHYWEVDVSKKTAWILGVCAGFQPDAMCNIEKNENYQPKYGYWVIGLEEGVKCSAFQDSSFHTPSVPFIVPLSVIICPDRVGVFLDYEACTVSFFNITNHGFLIYKFSHCSFSQPVFPYLNPRKCGVPMTLCSPSS [human TRIM5α, 330-340 = GARGTRFTFPTLT]”, the figure is 0.259 ± 0.083.

The values are drawn from the supplement of paper PMC12230231.
